Experimental data reported in the RNAGym collection of RNA variant scans (doi:10.1093/nar/gkz1192).
The source gives no read counts; variants with many changes may rest on few reads.

B1: CPEB3 Ribozyme (parent)
chain: UAACAGGGGGCCACAGCAGAAGCGUUCACGUCGCAGCCCCUGUCAGAUUCUGGUGAAUCUGCGAAUUCUGCUGUAUAUCUC

Variants of: B1
Assay: self-cleavage, relative activity (ratio to wild type); higher = more cleavage; in vitro, sequencing
How it was run: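 Relative activity compares each variant's cleaved/total read fraction with that of the unmutated ribozyme. To get these fractions, barcoded CPEB3 ribozyme libraries from rounds of error-prone PCR were transcribed with T7 RNA polymerase for 5 hours at 37°C and then given 15 min of DNase I treatment before EDTA was added. The RNAs were reverse transcribed with template switching and sequenced on Illumina, and DNA sequencing linked barcodes to variants. A minimum of 5 reads applied, and three batches were averaged.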
In the case of UAACAGAGGGCCACAGCGGAAGCGUUCACGUCGCAGCCCCUGUCAGAUUCUGGUGAAUCUGCGAAUUCUGCUGUAUAUCAC [G7A A18G U80A], the self-cleavage is reported as 0.4.
Variant UAACAGAGGGCCACGGCAGAAGCGUUCACGUCGCAGCCCCUGUCAGAUUCUGGUGAAUCUGCGAAUUCCGCUGUAUAUCUC [G7A A15G U69C] has a self-cleavage of 0.22.
Variant UAACAGAGGGCCACAGCAGAAGCGUUCACGUCGCUGCCCCUGUCAGAUUCUGGUGAAUCCGCGAAUUCUGCUGUAUAUCUC [G7A A35U U60C] has a self-cleavage of 0.05.
Variant UAACAGAGGGCCACAGCAGAGGCGUUCACGUCGCAGCCCCUGCCAGAUUCUGGUGAAUCAGCGAAUUCUGCUGUAUAUCUC [G7A A21G U43C U60A] has a self-cleavage of 0.18.
In the case of UAACAGAGGGCCACAGCGGAAGCGUUCACGUCGCAGCCCCAGUCAGAUUCUGGCGAAUCUGCGAACUCUGCUGUAUAUCUC [G7A A18G U41A U54C U66C], the self-cleavage is reported as 0.04.
For UAACAGAGGGCCACAGCAGAAGCGUUCACGUCGCAGCCCCUGUCAGGUUCUGGUGAAUCUGCGGAUUCUGCUGUAUAUCUC [G7A A47G A64G], the self-cleavage was 0.06.
Work on UAACAGAGGGCCACAGCAGAAGCGUUCACGUCGCAGCCCCUGUCAGAUUCUGGUGAGUCUGCGAAUUCUGCUGCAUAUCUC [G7A A57G U74C] yielded a self-cleavage of 0.37.
UAACAGAGGGCCACAGCUGAAGCGUUCACGUCGCAGCACCUGUCAGAUUCUGGUGGAUCUGCGAAUUCUGCUGUAUAUCUC [G7A A18U C38A A56G] showed a self-cleavage of 0.04.
For UAACAGAGGGCCACUGCAGAAGCGUUCUCGUCGCAGCCCCUGUCAGAUUCAGGUGAAUCUGCGAUUUCUGCUGUAUAUCUC [G7A A15U A28U U51A A65U], the self-cleavage was 0.29.
For UAACAGAGGGCCACGGCAGAAGCGUUCACGUCGCAGCCCCUGUCAGAUUCUGGUGAAUCUGCGAAUCCUGCUGCAUAUCUC [G7A A15G U67C U74C], the self-cleavage was 0.19.
UAACAGAGGGCCACAGCAGAAGCGUUCACGUCGCGGCCCCAGUCAGAUUCUGGAGAAUCUGCGAAUUCUGCUGUACGUCUC [G7A A35G U41A U54A U76C A77G] showed a self-cleavage of 0.12.
With UAACAGAGGGCCACAGCAGAAGCGUUCACGUCGCUGCCCCUGUCAGAUUCUGGUGAGUCUGCGAAUUCUUCUGUAUAUCUC [G7A A35U A57G G70U] the self-cleavage was 0.06.
With UAACAGAGGGCCACAGCAGAAGCGUUCACGUCGCGGCCCCUGUCAGAUCCUGGGGAAUCUGCGAAUUCUGCUGUAUAUCUC [G7A A35G U49C U54G] the self-cleavage was 0.1.
In the case of UAACAGAGGGCCACAGCAGAAGCGUUCUCGUCGCAGCCCCGGUCAGAUUCUGGUGAAUCUGCGUAUUCUGCUGUAUAUCUC [G7A A28U U41G A64U], the self-cleavage is reported as 0.06.
UAACAGAGGGCCACAGCAGAAGCGUUCACGUCGCUGCCCCAGUCAGAUUCUGGUGGAUCUGCGAAUUCUGCUGUAUAUCUC [G7A A35U U41A A56G] showed a self-cleavage of 0.06.
In the case of UAACAGAGGGCCACAGCAGAAGCGUUCACGUCGCAGCCCCUGUCAGGUUCUGGUGAAUAUGCGAAUUCUGCUGAAUAUCUC [G7A A47G C59A U74A], the self-cleavage is reported as 0.05.
With UAACAGAGGGCCACAGCAGAGGCGUUCGCGUCGCAGCCCCUGUCAGAUUCUGGUGAAUCUGCGAAUUCUGCUGUAUAUCUC [G7A A21G A28G] the self-cleavage was 0.11.
UAACAGAGGGCCACAGCAGGAGCGUUCACGUCGCGGCCCCUGUCAGAUUCUGGUGAAUCUGCGAAUUCUGCUGUAUGUCUC [G7A A20G A35G A77G] showed a self-cleavage of 0.15.
UAACAGAGGGCCACAGCAGGAGCGUUCACGCCGCGGCCCCUGUCAGAUUCUGGUGGAUCUGCGAAUUCUGCCGUAUAUCUC [G7A A20G U31C A35G A56G U72C] gave a self-cleavage of 0.15.
UAACAGAGGGCCACUGCAGAAGCGUUCACGUCGCAGCCCCUGUCAGAUUCUGGUGAAUCUGCGAAUUCUGCCGUAUAUCAC [G7A A15U U72C U80A] showed a self-cleavage of 0.06.
For UAACAGAGGGCUACAGCAGAAGCGAUCACGUCGCAGCCCCUGUCAGAUUCUGGCGAAUCUGCGAAUUCUGCUGUAUAUCUC [G7A C12U U25A U54C], the self-cleavage was 0.05.
UAACAGAGGGGCACAGCAGAAGCGAUCACGACGCAGCCCCUGUCAGAUUCUGGUGAAUCUGCGAAUUCUGCUGUAUAUCUC [G7A C11G U25A U31A] showed a self-cleavage of 0.05.
In the case of UAACAGAGGGCAACAGCAGGAGCGUUCUCGUCGCGGCCCCUGUCAGAUUCUGGUGAAUCUGCGAAUUCUGCUGUAUAUCAC [G7A C12A A20G A28U A35G U80A], the self-cleavage is reported as 0.04.
UAACAGAGGGGCACAGCAGAAGCGUCCGCGUCACUGCUCCUGUCAGAUUCUGGUGAAUCUGCGAAUUCUGCUGUAUAUCUC [G7A C11G U26C A28G G33A A35U C38U] showed a self-cleavage of 0.03.
UAACAGAGGGCCACUGCAGAAGCGUUCACGUCGCGGCCCGUGUCAGAUUCUGGUGAAUCCGUGAAUUCUGCUGUAUAUCUC [G7A A15U A35G C40G U60C C62U] showed a self-cleavage of 0.05.
UAACAGAGGGCCACAGCAGGAGCGCUCACGUGGCAGCCCCUGUCGGAUUCUGGUGAAUCUGCGCAUUCUGCUGUAUACCUC [G7A A20G U25C C32G A45G A64C U78C] gave a self-cleavage of 0.05.
UAACAGAGGGCCACAGCAGAAGCGUUCACGUCGCAGCCCCUGUCAGGUUCUGUUGAAUCUGCGAAUUCUGCUGUAUAUCUC [G7A A47G G53U] showed a self-cleavage of 0.08.
UAACAGAGGGCCACAGCAGAGGCGUUCACGUCGCAGCCCCUGCCAGAUUCUGGUGAAUCUGCGAAUUCUGCUGUAUAUCCC [G7A A21G U43C U80C] gave a self-cleavage of 0.18.
UAACAGAGGGCCACAGCAGAAGCGUUCGCGUCGCAGCCCCAGUCAGAUUCUGGCGAAUCUGCGAAUUCUGCAGUAUAUCUC [G7A A28G U41A U54C U72A] gave a self-cleavage of 0.06.
For UAACAGAGGGCCACAGCAGAAGCGUUCACGUCGCAGCCCCUGUCAGAUUCUGGUGAAUCUGCGGAUUCUGCUGUAUGUCUC [G7A A64G A77G], the self-cleavage was 0.08.
Variant UAACAGAGGGCCACAGCAGAGGCGUUCACGUCGCAGCCCCUGUCAGGUUCUGGUGAAUCUGCGAAUUCUGCUGGAUAUCUC [G7A A21G A47G U74G] has a self-cleavage of 0.04.
UAACAGAGGGCCACAGCAGAAGCGUUCACGUCGCGGCCCCUGUCAGAUUCUGGUGAAUCUGCGAUAUCUGCUGUAUAUCUC [G7A A35G A65U U66A] gave a self-cleavage of 0.23.
UAACAGAGGGCCACAGCGGAAGCGUUCACGUCUCAGCCCUUGUCAGAUUCUGGCGAAUCUGCGAAUUCUGCUGUAUAUCUC [G7A A18G G33U C40U U54C] showed a self-cleavage of 0.24.
In the case of UAACAGAGGGCCACAGCAGGAGCGACCACGUCGCAGCCCCUGUCAGAUUCUGGUGAAUCUGCGAAUCCUGCUGUAUAUCUC [G7A A20G U25A U26C U67C], the self-cleavage is reported as 0.05.
